Measured values taken from patent publication US20250099622A1, “COMPOSITIONS AND METHODS FOR EXPRESSING THERAPEUTICS” (priority 2022, published 2025).

T1: Human NPR-B (R&D system) (human, UniProt P20594 23-458, limits assumed)
T1 construct: Bought protein immobilised on the Biacore chip; also called NBR-B; natriuretic peptide receptor B
T1 sequence (looked up): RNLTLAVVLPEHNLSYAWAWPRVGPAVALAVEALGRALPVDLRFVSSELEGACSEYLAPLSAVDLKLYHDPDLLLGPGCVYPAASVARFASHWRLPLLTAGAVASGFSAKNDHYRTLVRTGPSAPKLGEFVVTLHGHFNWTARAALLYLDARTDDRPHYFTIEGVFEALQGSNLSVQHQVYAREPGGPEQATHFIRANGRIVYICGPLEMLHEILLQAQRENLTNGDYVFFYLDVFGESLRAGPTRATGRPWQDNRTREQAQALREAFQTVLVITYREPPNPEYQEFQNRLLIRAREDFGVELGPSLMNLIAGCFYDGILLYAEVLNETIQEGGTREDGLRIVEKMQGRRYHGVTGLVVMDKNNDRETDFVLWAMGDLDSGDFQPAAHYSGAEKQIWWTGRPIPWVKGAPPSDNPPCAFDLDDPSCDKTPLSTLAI


Assays:
Human NPR-B (R&D system) [1] = molecular target: T1, Human NPR-B (R&D system); test: SPR (Biacore), drawn table 'Kinetic affinity comparison'
Method: (§1) Kinetic parameters were calculated assuming a simple 1:1 (Langmuir) binding. […] All SPR analysis was performed on a BIAcore 3000 system using series CM5 sensor chips. Data processing and analysis were performed using BIAevaluation software. All sensorgrams were double referenced by subtracting the response on a reference flow cell and a blank sample. Human NPR-B (R&D system) was covalently attached to a CM5 chip via amine coupling. […] Kinetic parameters were calculated assuming a simple 1:1 (Langmuir) binding. […] All SPR analysis was performed on a BIAcore 3000 system using series CM5 sensor chips. Data processing and analysis were performed using BIAevaluation software. All sensorgrams were double referenced by subtracting the response on a reference flow cell and a blank sample. Human NPR-B (R&D system) was covalently attached to a CM5 chip via amine coupling. […] Kinetic parameters were calculated assuming a simple 1:1 (Langmuir) binding. […] All SPR analysis was performed on a BIAcore 3000 system using series CM5 sensor chips. Data processing and analysis were performed using BIAevaluation software. All sensorgrams were double referenced by subtracting the response on a reference flow cell and a blank sample. Human NPR-B (R&D system) was covalently attached to a CM5 chip via amine coupling.

Human NPR-B (R&D system) [2] = molecular target: T1, Human NPR-B (R&D system); test: SPR (Biacore 3000), human NPR-B amine-coupled to CM5 chip, 1:1 Langmuir fit
Method: as §1

[3] = test system: NIH3T3 cells (cGMP secreted); test: EC50 for CNP-Fc constructs, cGMP ELISA of NIH3T3 supernatant; assay type: cell-based; settings: NIH3T3, 30 minutes, 1.8 mM IBMX, cGMP secreted by the cells; FIG. 25B
Method: EC50 for CNP-Fc described herein were measured by ELISA. 2.5E+05 NIH3T3 cells/well were plated. […] After 30 minutes, supernatant was collected for cGMP determined via ELISA. FIG. 25A illustrates a standard curve of cGMP.

Molecule	Comparison (kinetic affinity relative to Control P22) (Human NPR-B (R&D system) [1])	Kd (Human NPR-B (R&D system) [2])	EC50 values (rank order) [3]
AMI263 (Fc4-(G4S)4-CNP36) (Fc fusion, Human IgG4 Fc, then (G4S)4, then CNP36; also called Fc4-CNP36; FC4-CNP) [sequence of human IgG4 Fc with S228P (EU numbers) and a few adjoining residues omitted]GGGGSGGGGSGGGGSGGGGSEHPNARKYKGANKKGLSKGCFGLKLDRIGSMSGLGC	103 x	0.358 pM	
AMI088 (Fc1-(G4S)4-CNP36) (Fc fusion, Human IgG1 Fc, then (G4S)4, then CNP36; Purified on protein A from HEK293 culture; also called Fc1-CNP36; FC1-CNP) [sequence of human IgG1 Fc omitted]GGGGSGGGGSGGGGSGGGGSEHPNARKYKGANKKGLSKGCFGLKLDRIGSMSGLGC		0.695 pM	
AMI087 (CNP36-(G4S)4-Fc1) (Fc fusion, CNP36, then (G4S)4, then human IgG1 Fc; also called CNP36-F1; CNP36-4XGGGS-FC1) EHPNARKYKGANKKGLSKGCFGLKLDRIGSMSGLGCGGGGSGGGGSGGGGSGGGGS[sequence of human IgG1 Fc omitted]		419000 pM	
Aflibercept-Fc4-CNP36: CNP fusion (Fc4-CNP36) with VEGF inhibitor (Aflibercept); probably the protein of AMI312, SEQ ID NO: 139 (protein) SDTGRPFVEMYSEIPEIIHMTEGRELVIPCRVTSPNITVTLKKFPLDTLIPDGKRIIWDSRKGFIISNATYKEIGLLTCEATVNGHLYKTNYLTHRQTNTIIDVVLSPSHGIELSVGEKLVLNCTARTELNVGIDFNWEYPSSKHQHKKLVNRDLKTQSGSEMKKFLSTLTIDGVTRSDQGLYTCAASSGLMTKKNSTFVRVHEKDKRV[sequence of human IgG4 Fc with S228P (EU numbers) omitted]GGGGSGGGGSGGGGSGGGGSEHPNARKYKGANKKGLSKGCFGLKLDRIGSMSGLGC			CNP-22 ≡Fc4-CNP36>Aflibercept-Fc4-CNP36>Fc1-CNP36>>Fc4-CNP22
